# Data from PubChem BioAssay AID1030 (National Center for Advancing Translational Sciences (NCATS), 2008).
# “And” between values parts separate entries of the source, which are not always exact repeats. Identical values can stand only once. About 16,000 (7.3%) of roughly 220,000 compounds were called active. The shares of active, inactive and inconclusive entries below differ from those in the screen. The call rests on the fitted dose curve; in most records, active means well fitted inhibition curve with a large enough effect (not every such curve was filed as active); inconclusive means small, poorly fitted or top-dose-only effect, or another doubt; inactive means no such curve, though single readings can be large or run the other way. Potencies of inconclusive entries are left out as doubtful fits.
# Molecular target: Aldehyde dehydrogenase 1A1 (Homo sapiens) (UniProt P00352)
# Assay: qHTS Assay for Inhibitors of Aldehyde Dehydrogenase 1 (ALDH1A1);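 on activity, negative = inhibition: plate controls were no enzyme wells and a reference inhibitor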
# Details: Purified ALDH1A1, NADH fluorescence, propionaldehyde substrate; series mostly up to 75.3 µM; activity, negative = inhibition: at the top concentration
# Potency means the concentration at half of the fitted maximal effect; tags describe the fitted curve by direction and shape.
# Chain of UniProt P00352 (P00352 whole entry, looked up): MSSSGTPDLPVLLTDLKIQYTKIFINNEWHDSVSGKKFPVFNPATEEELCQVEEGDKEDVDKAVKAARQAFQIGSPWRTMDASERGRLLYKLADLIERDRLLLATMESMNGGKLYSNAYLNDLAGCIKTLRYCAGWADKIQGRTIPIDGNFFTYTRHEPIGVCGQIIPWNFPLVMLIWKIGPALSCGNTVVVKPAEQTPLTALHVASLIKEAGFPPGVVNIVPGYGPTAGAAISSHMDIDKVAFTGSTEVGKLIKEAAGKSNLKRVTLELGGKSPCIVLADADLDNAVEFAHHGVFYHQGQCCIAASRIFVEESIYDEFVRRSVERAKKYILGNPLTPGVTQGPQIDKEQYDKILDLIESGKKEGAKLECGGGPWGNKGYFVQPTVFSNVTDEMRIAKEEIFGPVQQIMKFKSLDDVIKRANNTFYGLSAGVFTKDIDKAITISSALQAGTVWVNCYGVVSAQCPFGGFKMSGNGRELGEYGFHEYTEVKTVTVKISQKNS
SMILES,Potency,"activity, negative = inhibition"
Cc1cc2oc(=O)cc(CN3CCCCC3C)c2c(C)c1Cl (stereo not given),"inconclusive [inhibitor, partial curve]",–
CCOC(=O)c1cc(-c2ccccc2)sc1NC(=O)C(C)(C)C,"inconclusive [inhibitor, single point]",–
COc1ccc2cc(CN(Cc3cccnc3)S(=O)(=O)c3ccccc3)c(=O)[nH]c2c1,"inconclusive [inhibitor, partial curve]",–
COC(OC)c1nc(SCC(=O)Nc2cccc(Cl)c2)ncc1C(=O)O,active: 28.2 µM,–
Cn1c(NNC(=O)C(c2ccccc2)c2ccccc2)cc(=O)n(C)c1=O,–,inactive: 7.23%
O=C(Nc1ccccc1)ON=C1c2ccccc2-c2ccccc21,"inconclusive [inhibitor, partial curve]",–
c1ccc(-c2cc(-c3ccccc3)n3ncnc3n2)cc1,"inconclusive [inhibitor, partial curve]",–
COCC(=O)NNC(=O)Cc1ccc(Cl)cc1,"inconclusive [inhibitor, single point]",–
O=C(Nc1sc2c(c1C(=O)c1ccc(Cl)cc1)CCCC2)c1cccnc1,active: 20 µM,–
Cc1ccc(OCc2ccc(C(=O)Nc3ccc(C(N)=O)cc3)o2)c([N+](=O)[O-])c1,–,inactive: 10.5%
Cc1cc2c(cc1C)-c1c(ssc1=Nc1ccc(S(N)(=O)=O)cc1)C(C)(C)N2,–,inactive: -1.75%
CCOC(=O)/C(=C/c1ccc(OC(=O)c2ccccc2)cc1)C(C)=O,"inconclusive [inhibitor, single point]",–
O=C(c1coc(=O)c(Br)c1)N1CCC(C(O)(c2ccccc2)c2ccccc2)CC1,"inconclusive [inhibitor, partial curve]",–
Cn1nc(-c2ccc(N3CCCCC3)c(NC(=O)c3ccco3)c2)c2ccccc2c1=O,active: 31.6 µM,–
N#CCC(=O)NC(=O)NCC1CC1,active: 3.98 µM and active: 1.26 µM,–
CCC1CCC(C(=O)NNC(=O)c2cc(-c3ccco3)[nH]n2)CC1 (stereo not given),–,inactive: -9.28%
CN(C)c1c(F)cc(C(=O)NCc2ccccc2)cc1F,"inconclusive [inhibitor, partial curve]",–
CCOC(=O)C1CCCN(C(=O)/C=C/c2ccccc2[N+](=O)[O-])C1 (stereo not given),"inconclusive [inhibitor, single point]",–
CC1CCCCC1NC(=O)c1nn(C)c(=O)c2ccccc12 (stereo not given),"inconclusive [inhibitor, partial curve]",–
COc1cc(CC(=O)OCn2nnc3ccccc3c2=O)cc(OC)c1OC,–,inactive: 6.81%
CCc1ccccc1OCc1nc2ccc(S(=O)(=O)N3CCOCC3)cc2[nH]1,"inconclusive [inhibitor, single point]",–
Cc1ccc(Cl)cc1NC(=S)N(CCCN1CCN(C)CC1)Cc1cccs1,–,inactive: -2.97%
COc1cccc(NC(=O)Cn2c3ccccc3c3nc4n(c(=O)c32)CCS4)c1,"inconclusive [inhibitor, partial curve]",–
O=c1oc2c3c4c(cc2s1)CCCN4CCC3,active: 25.1 µM,–
COc1ccc(/C=C2\CCn3c2nc2cc(C(=O)O)ccc2c3=O)cc1O,active: 22.4 µM,–

SMILES,Potency,"activity, negative = inhibition"
CCc1ccccc1NS(=O)(=O)c1cc(C)ccc1OC,–,inactive: -2.48%
COc1cccc(-c2nn(-c3ccccc3)cc2CN(C)C(C)c2ccncn2)c1 (stereo not given),–,inactive: -4.7%
COc1ccc(NS(=O)(=O)c2ccc(O)c(C(=O)OCC(=O)NC(C)C3CC4CCC3C4)c2)cc1 (stereo not given),"inconclusive [inhibitor, single point]",–
CC1Cc2ccccc2N1CC(=O)NC(=O)NCc1ccco1 (stereo not given),"inconclusive [inhibitor, single point]",–
Cc1ccc2c(c1)Sc1ccccc1CC2=O,active: 17.8 µM,–
O=C(NC(=S)N1CCCCCC1)c1ccc(Cl)cc1Cl,–,inactive: 3.13%
CSc1nc2ccc(NS(=O)(=O)c3ccc(Cl)s3)cc2s1,active: 39.8 µM,–
CN(C)CCOCCOc1ccccc1-c1ccccc1,"inconclusive [inhibitor, full curve]",–
COc1ccc(C(=O)c2cc([N+](=O)[O-])ccc2N2CCN(C)CC2)cc1,active: 5.01 µM,–
C=CCSc1nc2c(c(=O)[nH]c(=O)n2C)n1C(C)C,active: 3.16 µM,–
CC1CN(CCCOc2ccccc2[N+](=O)[O-])CC(C)O1 (stereo not given),–,inactive: -1.88%
Cc1cccc2cc(CN(Cc3ccco3)C(=O)c3cccs3)c(=O)[nH]c12,"inconclusive [inhibitor, single point]",–
Cc1cc(C(=O)CSc2nn3c(=O)c(C(C)(C)C)nnc3s2)c(C)n1C,"inconclusive [inhibitor, single point]",–
COc1ccc(-c2cc(C(F)(F)F)n3ncc(C(=O)N(C)Cc4ccccc4)c3n2)cc1,"inconclusive [inhibitor, single point]",–
[N-]=[N+]=NCC1OC(n2cnc3c(=O)[nH]c(N)nc32)C(O)C1O (stereo not given),–,inactive: 8.29%
CCCn1c(-c2ccc(F)cc2)nc2c(NCCCCN(C)C)nc(C)nc21,"inconclusive [inhibitor, single point]",–
COc1cc(/C=N/NC(=O)C(C)n2nnc3ccccc32)ccc1O (stereo not given),"inconclusive [inhibitor, single point]",–
Cc1cccc(O)c1,–,inactive: 10.4%
COc1cccc(-c2cc(=O)c3cc(NC(=O)c4ccc(N(C)C)cc4)ccc3[nH]2)c1,inactive,–
S=c1[nH]nc(Cc2sc(-c3ccccc3)nc2-c2ccccc2)o1,"inconclusive [inhibitor, full curve]",–
CC(=O)[C@@H]1CC[C@@H]2[C@@H]3C[C@H](C)C4=CC(=O)CC[C@@]4(C)[C@H]3[C@H](O)C[C@]21C,–,inactive: -17.8% [at 20.9 µM]
O=C(CSC1=NCCS1)N1CCCCCC1,–,inactive: 5.5%
Cc1ccc(-c2oc3ccccc3c(=O)c2OCC(=O)O)cc1,"inconclusive [inhibitor, single point]",–
Cc1cccc(NC(=S)NC2CC3CCCC(C2)N3CC(C)C)c1 (stereo not given),–,inactive: -3.35%
Cc1ccc(-c2oc3ncnc(N)c3c2-c2ccc(C)cc2)cc1,"inconclusive [inhibitor, single point]",–

SMILES,Potency,"activity, negative = inhibition"
CCc1ccc(OCC(=O)NC(NC(=S)Nc2ccc(C)cc2C)C(Cl)(Cl)Cl)cc1 (stereo not given),–,inactive: -9.13%
CCC1=C(C(=O)OC)C(c2cc(OC)ccc2OC)C(C#N)=C(N)O1 (stereo not given),active: 17.8 µM,–
CCC(=O)NNc1ncnc2c1cnn2-c1ccccc1,"inconclusive [inhibitor, single point]",–
c1ccc(Sc2ncccn2)nc1,–,inactive: -10.5%
Cc1cc(N2CCOCC2)nc(SCc2c(Cl)cccc2Cl)n1,"inconclusive [inhibitor, single point]",–
COc1ccccc1/C=C/C1=NC(=C\N(C)C)/C(=O)O1,"inconclusive [inhibitor, single point]",–
CCC(=O)Nc1ccc(Cl)c(NC(=O)C(C)C)c1,–,inactive: 20.1%
O=C(CCN1C(=O)C2C3C=CC(C3)C2C1=O)N1CCN(c2ccc(F)cc2)CC1 (stereo not given),"inconclusive [inhibitor, single point]",–
Nc1cccc2c1C(=O)N(CC(=O)NC13CC4CC(CC(C4)C1)C3)C2=O,"inconclusive [inhibitor, partial curve]",–
Cc1ccc(NC(=O)OCc2ccccc2S(C)=O)cc1 (stereo not given),–,inactive: 7.46%
CCc1nc(SCC(=O)NCc2ccc(F)cc2)c2c(=O)n(C)c(=O)n(C)c2n1,–,inactive: 8.79%
COc1ccc2nc(N3C(=O)CC(Cc4ccc(Cl)cc4)C3=O)sc2c1 (stereo not given),"inconclusive [inhibitor, partial curve]",–
COCCCn1c(C)nc2c(c1=O)c1nc3ccccc3nc1n2CCc1ccccc1,"inconclusive [inhibitor, partial curve]",–
CCN1CCN(c2nc3c(C)cccn3c(=O)c2/C=C(\C#N)S(=O)(=O)c2ccccc2)CC1,active: 22.4 µM,–
CCOP(=O)(OCC)c1nc(/C=C/c2ccccc2)oc1NCc1ccccc1,"inconclusive [inhibitor, partial curve]",–
CCOc1ccccc1C1C(C(=O)Nc2ccccc2OC)=C(C)Nc2nnnn21 (stereo not given),"inconclusive [inhibitor, single point]",–
Cc1nc2ncnn2c(N2CCCC(C(=O)Nc3ccccc3Br)C2)c1C (stereo not given),"inconclusive [inhibitor, full curve, poor fit]",–
CS(=O)(=O)c1ccc2nc(NC(=O)CN3CCCCCC3)sc2c1,–,inactive: -8.52%
CC1=C(C(=O)OCC2CCCO2)C(c2ccccc2)C2=C(CCCC2=O)N1 (stereo not given),"inconclusive [inhibitor, single point]",–
CC(C)(C)NC[C@H](O)COc1cccc2c1C[C@@H](O)[C@@H](O)C2,–,inactive: -0.432% [at 20.9 µM]
CCCCOc1ccc(-c2nnc(-c3ccco3)o2)cc1,"inconclusive [inhibitor, single point]",–
S=c1[nH]nc(-c2cccnc2)n1/N=C/C=C/c1ccco1,"inconclusive [inhibitor, single point]",–
C[C@H](NC(=O)c1nc[nH]c1C(=O)NC1CCN(C(=O)OC(C)(C)C)CC1)C(=O)OC(C)(C)C,"inconclusive [inhibitor, single point]",–
CNC(=O)COC(=O)/C=C/c1cn(-c2ccccc2)nc1-c1ccc(C)o1,"inconclusive [inhibitor, single point]",–
COc1ccc(CNc2nc(-c3ccccc3)nn2C(=O)c2cccs2)cc1,active: 25.1 µM,–
